# Assay results published in the supplement of paper PMC8728848.
# This is one part of the list.
# Columns and labels:
# Assay in all cases: glycan array binding signal (z-score within array); higher = stronger binding
# Details in all cases: glycan notation: IUPAC condensed, linker removed
# [1] = target: Neu5Ac(a2-6)GalNAc(b1-4)GlcNAc6S
# How it was run: (§1)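 From the Consortium for Functional Glycomics database, 3228 arrays were curated, keeping only those whose protein sequence was available. Binding is given as a within-array Z-score averaged across arrays sharing a protein sequence and across linkers. Negative Z-scores can be read as non-binding.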
# [2] = target: Neu5Ac(a2-6)GlcNAc(b1-4)GlcNAc
# How it was run: as §1
# [3] = target: Neu5Ac(a2-6)GlcNAc(b1-4)GlcNAc(b1-4)GlcNAc
# How it was run: as §1
# Neu5Ac(a2-8)Neu5Ac = target: Neu5Ac(a2-8)Neu5Ac
# How it was run: as §1
# [4] = target: Neu5Ac(a2-8)Neu5Ac(a2-3)Gal(b1-3)GalNAc(b1-4)[Neu5Ac(a2-3)]Gal(b1-4)Glc
# How it was run: as §1
# [5] = target: Neu5Ac(a2-8)Neu5Ac(a2-3)Gal(b1-3)GalNAc(b1-4)[Neu5Ac(a2-8)Neu5Ac(a2-3)]Gal(b1-4)Glc
# How it was run: as §1
# [6] = target: Neu5Ac(a2-8)Neu5Ac(a2-3)Gal(b1-4)Glc
# How it was run: as §1
# [7] = target: Neu5Ac(a2-8)Neu5Ac(a2-3)Gal(b1-4)GlcNAc
# How it was run: as §1
# [8] = target: Neu5Ac(a2-8)Neu5Ac(a2-3)[Gal(b1-3)GalNAc(b1-4)]Gal(b1-4)Glc
# How it was run: as §1
# [9] = target: Neu5Ac(a2-8)Neu5Ac(a2-3)[GalNAc(b1-4)]Gal(b1-4)Glc
# How it was run: as §1
# [10] = target: Neu5Ac(a2-8)Neu5Ac(a2-8)Neu5Ac
# How it was run: as §1
# [11] = target: Neu5Ac(a2-8)Neu5Ac(a2-8)Neu5Ac(a2-3)Gal(b1-4)Glc
# How it was run: as §1
# [12] = target: Neu5Ac(a2-8)Neu5Ac(a2-8)Neu5Ac(a2-3)[Gal(b1-3)GalNAc(b1-4)]Gal(b1-4)Glc
# How it was run: as §1
# [13] = target: Neu5Ac(a2-8)Neu5Ac(a2-8)Neu5Ac(a2-3)[GalNAc(b1-4)]Gal(b1-4)Glc
# How it was run: as §1
# [14] = target: Neu5Ac(a2-8)Neu5Ac(a2-8)Neu5Ac(a2-8)Neu5Ac(a2-3)[GalNAc(b1-4)]Gal(b1-4)Glc
# How it was run: as §1
# [15] = target: Neu5Ac(a2-8)Neu5Gc(a2-3)Gal(b1-4)GlcNAc
# How it was run: as §1
# [16] = target: Neu5Ac(b2-6)Gal(b1-4)GlcNAc
# How it was run: as §1
# Neu5Ac(b2-6)GalNAc = target: Neu5Ac(b2-6)GalNAc
# How it was run: as §1
# [17] = target: Neu5Ac9Ac(a2-3)Gal(b1-3)GlcNAc
# How it was run: as §1
# [18] = target: Neu5Ac9Ac(a2-3)Gal(b1-4)GlcNAc
# How it was run: as §1
# [19] = target: Neu5Ac9Ac(a2-6)Gal(b1-4)GlcNAc
# How it was run: as §1
# [20] = target: Neu5Gc(a2-3)Gal(b1-3)GlcNAc
# How it was run: as §1
# [21] = target: Neu5Gc(a2-3)Gal(b1-3)[Fuc(a1-4)]GlcNAc
# How it was run: as §1
# Neu5Gc(a2-3)Gal(b1-4)Glc = target: Neu5Gc(a2-3)Gal(b1-4)Glc
# How it was run: as §1
# [22] = target: Neu5Gc(a2-3)Gal(b1-4)GlcNAc
# How it was run: as §1
# [23] = target: Neu5Gc(a2-3)Gal(b1-4)GlcNAc(b1-3)Gal(b1-4)GlcNAc(b1-2)Man(a1-3)[Neu5Gc(a2-3)Gal(b1-4)GlcNAc(b1-3)Gal(b1-4)GlcNAc(b1-2)Man(a1-6)]Man(b1-4)GlcNAc(b1-4)GlcNAc
# How it was run: as §1
# [24] = target: Neu5Gc(a2-3)Gal(b1-4)[Fuc(a1-3)]GlcNAc
# How it was run: as §1
# [25] = target: Neu5Gc(a2-3)Gal(b1-4)[Fuc(a1-4)]GlcNAc
# How it was run: as §1
# [26] = target: Neu5Gc(a2-6)Gal(b1-4)GlcNAc
# How it was run: as §1
# Neu5Gc(a2-6)GalNAc = target: Neu5Gc(a2-6)GalNAc
# How it was run: as §1
# [27] = target: Neu5Gc(a2-8)Neu5Ac(a2-3)Gal(b1-4)GlcNAc
# How it was run: as §1
# [28] = target: Neu5Gc(a2-8)Neu5Gc(a2-3)Gal(b1-4)GlcNAc
# How it was run: as §1
# [29] = target: Neu5Gc(a2-8)Neu5Gc(a2-3)Gal(b1-4)GlcNAc(b1-3)Gal(b1-4)GlcNAc
# How it was run: as §1
# [30] = target: Neu5Gc(a2-8)Neu5Gc(a2-6)Gal(b1-4)GlcNAc
# How it was run: as §1
# [31] = target: Neu5Gc(b2-6)Gal(b1-4)GlcNAc
# How it was run: as §1
binder,measurement,setting,value
XL-35 (Xenopus laevis) (protein) MLVHILLLLVTGGLSQSCDPVVIVASKNMVKQLDCDKFRNCKEIKDSNEEAQDGIYTLTSPDGISYQTFCDMTTNGGGWTLVASVHENNMAGKCTIGDRWSSQQGNRADYPEGDGNWANYNTFGSAGGATSDDYKNPGYYDIEAYNLGVWHVPNKTPLSVWRNSSLQRYRTTDGILFKHGGNLFSLYRIYPVKYGIGSCSKDSGPTVPVVYDLGSANLTASFYSPGFRSQFTPGYIQFRPINTEKAALALCPGMKMESCNVEHVCIGGGGYFPEADPRQCGDFAAYDFNGYGTKKFNSAGIEITEAAVLLFYL,glycan array binding signal (z-score),[1],0.22
same,glycan array binding signal (z-score),[2],0.131
same,glycan array binding signal (z-score),[3],-0.199
same,glycan array binding signal (z-score),Neu5Ac(a2-8)Neu5Ac,-0.216
same,glycan array binding signal (z-score),[4],-0.43
same,glycan array binding signal (z-score),[5],0.319
same,glycan array binding signal (z-score),[6],-0.079
same,glycan array binding signal (z-score),[7],-0.645
same,glycan array binding signal (z-score),[8],-0.062
same,glycan array binding signal (z-score),[9],-0.257
same,glycan array binding signal (z-score),[10],-0.113
same,glycan array binding signal (z-score),[11],-0.205
same,glycan array binding signal (z-score),[12],0.08
same,glycan array binding signal (z-score),[13],0.02
same,glycan array binding signal (z-score),[14],0.161
same,glycan array binding signal (z-score),[15],0.012
same,glycan array binding signal (z-score),[16],-0.252
same,glycan array binding signal (z-score),Neu5Ac(b2-6)GalNAc,-0.153
same,glycan array binding signal (z-score),[17],-0.403
same,glycan array binding signal (z-score),[18],-0.407
same,glycan array binding signal (z-score),[19],-0.226
same,glycan array binding signal (z-score),[20],-0.235
same,glycan array binding signal (z-score),[21],-0.185
same,glycan array binding signal (z-score),Neu5Gc(a2-3)Gal(b1-4)Glc,0.032
same,glycan array binding signal (z-score),[22],-0.172
same,glycan array binding signal (z-score),[23],-0.139
same,glycan array binding signal (z-score),[24],-0.361
same,glycan array binding signal (z-score),[25],-0.087
same,glycan array binding signal (z-score),[26],-0.141
same,glycan array binding signal (z-score),Neu5Gc(a2-6)GalNAc,-0.112
same,glycan array binding signal (z-score),[27],0.085
same,glycan array binding signal (z-score),[28],-0.302
same,glycan array binding signal (z-score),[29],-0.367
same,glycan array binding signal (z-score),[30],0.417
same,glycan array binding signal (z-score),[31],0.189
